Reference: PubChem BioAssay AID624202 (National Center for Advancing Translational Sciences (NCATS), 2012)
Among all 380,000 compounds or so, about 4,000 (1.1%) were called active. Inconclusive means that the source gave no clear call. Such entries were picked first, then a sample of the others. Calls come from the whole dose curve; as a rule, active = well fitted activation curve with a large enough effect; inconclusive = small, poorly fitted or top-dose-only effect; inactive = no such curve, though single readings can be large or run the other way. Potencies of inconclusive entries are doubtful fits and often do not repeat.

assay: qHTS Assay to Identify Small Molecule Activators of BRCA1 Expression; conditions: MCF7-BRCA1-FFLuc reporter, luminescence, 48 h; activation: at 46.1 µM (top of the series), scaled: vehicle 0%, 10 µM genistein 100% unless noted; note: nearly all actives have a fitted effect of over 80% in size
How it was run: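 MCF7-BRCA1-FFLuc cells, 2000/well in phenol-red-free MEM, attached 2 h then treated 48 h at 37 C. Luciferase luminescence read 15 min after reagent; normalized to genistein maximum activation (10microM) and DMSO, concentration-response fitted.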
Potency is the fitted concentration of half-maximal effect; tags give direction and shape of the fitted curve.

SMILES | Potency | activation
O=C(Nc1ccc2ccccc2c1)c1ccc(Cl)cc1 | inconclusive: 2.51 µM [activator, partial curve, poor fit] | 
Cc1ccc(Nc2nc(CSc3nnnn3C)cs2)cc1 | active: 3.16 µM | 
COc1ccc(-c2n[nH]c3c2C(c2ccc(OC)c(OC)c2)N(c2ccccc2)C3=O)cc1 (stereo unspecified) | inactive | 
Cc1ccc(C(=O)NNC(=O)c2ccco2)cc1 | inconclusive: 10 µM [activator, partial curve, poor fit] | 
COc1ccccc1CCc1nnc(CCC(=O)N(C)Cc2cccc3cnccc23)o1 | inconclusive: 8.91 µM [activator, partial curve, poor fit] | 
COCc1nc(-c2ccc(-c3ccc(OC)cc3)nc2OC)no1 | inactive | 
CCC1Oc2ccccc2C(=O)N(CC(=O)c2ccc3c(c2)OCCO3)C1=O (stereo unspecified) | inconclusive: 14.1 µM [activator, partial curve, poor fit] | 
C(=Cc1nc2ccccc2o1)c1ccc2c(c1)OCO2 |  | inconclusive: -29.8% [activator]
C/C(=N/NC(=O)c1ccco1)c1ccc(NC(=O)c2ccc(F)cc2)cc1 | active: 7.08 µM | 
Cc1ccccc1-n1c(C)cc(/C=N/NC(=O)c2ccc(CN3CCOCC3)cc2)c1C | inactive | 
CC(=O)Nc1ccc(/C=N/N2CCCCC2)cc1 | inconclusive: 15.8 µM [activator, partial curve, poor fit] | 
O=C(COC(=O)c1cc[n+]([O-])cc1)Nc1ccc(SC(F)F)cc1 | inconclusive: 11.2 µM [activator, partial curve, poor fit] | 
O=C(Nc1nc2ccccc2[nH]1)c1cc(F)cc(F)c1 | inconclusive: 1.26 µM [activator, full curve, poor fit] | 
Cc1ccc(C(=O)/C=C/Nc2ccc3c(c2)OCO3)cc1 | inconclusive: 1.26 µM [activator, partial curve, poor fit] | 
CCN1CCN(c2ccc(NC(=O)c3ccco3)cc2Cl)CC1 | inconclusive: 5.01 µM [activator, partial curve, poor fit] | 
C=CCSc1nnc2c(n1)[nH]c1c(C)cccc12 | inconclusive: 3.16 µM [activator, partial curve, poor fit] | 
CN(C)/[N+]([O-])=N\Oc1cc(OC(=O)c2ccc(N)cc2)c([N+](=O)[O-])cc1[N+](=O)[O-] | inactive | 
O=C(Nc1ccc2c(c1)OCO2)c1cccs1 | inconclusive: 2.51 µM [activator, partial curve, poor fit] | 
Cc1ccc(NCSc2ccc(Cl)cc2)cc1 | inconclusive: 22.4 µM [activator, single point] | 
Nc1ccc(NC(=O)c2ccc(C(=O)Nc3ccc(N)cc3)cc2)cc1 | inconclusive: 4.47 µM [activator, partial curve, poor fit] | 
COC(=O)c1ccc(-c2ccc(F)cc2)nc1C | inconclusive: 10 µM [activator, partial curve, poor fit] | 
COC(=O)c1sccc1N/N=C/c1ccc(OC)c(OC)c1OC | inconclusive: 2.51 µM [activator, full curve, poor fit] | 
O=C(Nc1ccc(N2CCN(C(=O)c3ccco3)CC2)cc1)c1ccc2c(c1)OCO2 | inactive | 

SMILES | Potency | activation
C=CCSc1ncc(C(=O)OCC)c(N)n1 | inconclusive: 12.6 µM [activator, partial curve, poor fit] | 
COc1ccc(-c2cc3ccc(O)cc3oc2=O)cc1 | inconclusive: 2 µM [activator, partial curve, poor fit] | 
O=C(O)c1ccc(-c2nc(-c3ccc(Cl)cc3Cl)cs2)cc1 | inconclusive: 0.891 µM [activator, full curve, poor fit] | 
Cc1cc(C(=O)COC(=O)C2=COCCO2)c(C)n1-c1cccc(F)c1 | inconclusive: 1.58 µM [activator, partial curve, poor fit] | 
N#Cc1ccccc1NC(=O)COc1ccccc1C(=O)Nc1ccccc1 | inactive | 
CCOC(=O)CSc1nc2cc(C)ccc2cc1C#N | inactive | 
CCc1sc(C(=O)N2CCN(CC(=O)Nc3cccc(F)c3)CC2)cc1C | inconclusive: 17.8 µM [activator, single point] | 
COc1ccc(Nc2cc(C)c3c(O)cccc3n2)cc1 | inconclusive: 35.5 µM [activator, single point] | 
CCOC(=O)c1sc(NC(=O)C(C)(C)C)cc1C | active: 3.16 µM | 
COc1cc(/C=N/N=C2/NC(=O)C(CC(=O)O)S2)ccc1OCc1ccc(Cl)cc1 (stereo unspecified) | active: 3.98 µM | 
CC(=O)c1ccc(NC(=O)c2noc3c2CCC3)cc1 |  | inconclusive: -93.6% [activator]
C/C(=N\NC(=O)COc1ccccc1-c1ccccc1)c1cccnc1 | inactive | 
CCn1cc(C(=O)NC(=S)Nc2ccccc2[N+](=O)[O-])cn1 | inconclusive: 12.6 µM [activator, single point] | 
O=C(Cc1ccc(Cl)cc1)Nc1ccc(Br)cn1 | active: 12.6 µM | 
O=C1[C@H](c2ccccc2)[C@@H](c2ccccc2)N1c1ccncc1 | inactive | 
COc1ccc2c(c1OC)C(=O)N1c3ccccc3SC21 (stereo unspecified) | active: 5.01 µM | 
C/C(=N/NC(=O)c1cccs1)c1cccc(N)c1 | active: 11.2 µM | 
O/N=C\c1ccc(-c2ccccc2)o1 | inconclusive: 11.2 µM [activator, partial curve, poor fit] | 
Cc1cc(=O)oc2cc3oc(=O)cc(C)c3cc12 |  | inconclusive: 376% [activator]
CNC1CCc2cc(OC)c(OC)c(OC)c2-c2ccc(SC)c(=O)cc21 (stereo unspecified) |  | inconclusive: -79.5% [activator]
CCOc1ccc(-c2nnc(-c3ccncc3)o2)cc1 | inconclusive: 2.51 µM [activator, partial curve, poor fit] | 
Cc1csc(NC(=O)c2ccc(N3CCCC3=O)cc2)n1 |  | inconclusive: -57.5% [activator]
N#C/C(=C\c1ccc(O)cc1)c1nc2ccccc2o1 | inconclusive: 3.16 µM [activator, partial curve, poor fit] | 
